Data as given in PubChem BioAssay AID624296 (National Center for Advancing Translational Sciences (NCATS), 2012).
The campaign covered roughly 350,000 compounds. About 9,900 (2.8%) were called active. The shares of active, inactive and inconclusive entries below differ from those in the screen. Calls follow the shape of the dose curve; as a rule, active = well fitted activation curve with a large enough effect; inconclusive = small, poorly fitted or top-dose-only effect; inactive = no such curve, though single readings can be large or run the other way. No potency is given beside an inconclusive call; the fits are too rough.

Test: A quantitative high throughput screen for small molecules that induce DNA re-replication in MCF 10a normal breast cells. Also: nearly all actives have a fitted effect of over 50% in size. As to activity, positive = re-replication: % of control where 0% means no effect.
Details: MCF 10A DNA re-replication, Hoechst nuclear intensity, 48 h; activity, positive = re-replication: at 46.1 µM (top of the series)
Potency is read from the fitted curve at half-maximal effect; tags tell the direction and shape of the fitted curve.

SMILES	activity, positive = re-replication	Potency
COc1cccc(CNC(=O)c2ccncc2)c1	inactive: -0.237%	–
CC1CCC(=C(C#N)C(=O)Nc2cccc(Cl)c2)CC1 (stereo not given)	–	inconclusive [activator, single point]
Cc1nn(Cc2nnc(SCC(=O)Nc3cccc(C(F)(F)F)c3)n2C)c(C)c1[N+](=O)[O-]	–	inconclusive [activator, single point]
Cc1cc(/C=C(\C#N)C(=O)Nc2ccccc2F)c(C)[nH]1	–	inconclusive [activator, single point]
CCn1c(SCC(=O)NNC(=O)c2ccccc2)nnc1-c1ccco1	–	inconclusive [activator, single point]
O=C(CN1c2cccc3cccc(c23)S1(=O)=O)Nc1ccc(F)c(F)c1F	–	inconclusive [activator, single point]
CCOc1ccc(C(=O)N2CCCC2)cc1	–	inconclusive [activator, single point]
CC(C)(C)c1cc(NC(=O)c2cc(F)c(F)c(F)c2F)no1	inactive: 1.3%	–
O=C(C1CC1)N1CCc2cc(S(=O)(=O)N3CCCc4ccccc43)ccc21	–	inconclusive [activator, partial curve]
CC(NS(=O)(=O)OCC(Cl)(Cl)Cl)c1ccc(C(C)(C)C)cc1 (stereo not given)	–	inconclusive [activator, partial curve, poor fit]
COc1ccc(-c2cccc([C@H]3[C@@H]4C=CCC[C@@]4(C)C(=O)N3Cc3ccccc3)c2)cc1	–	inconclusive [activator, single point]
CC(NC(=O)Cn1cccc1C(=O)c1ccccc1)c1ccccc1 (stereo not given)	inactive: -0.577%	–
CN(Cc1c(C(=O)N/N=C/c2cccc(Cl)c2)nnn1-c1nonc1N)c1ccccc1	inactive: 2.06%	–
O=C(Nc1nnc(C2CCCCC2)s1)C1CC(=O)N(c2ccc(F)cc2)C1 (stereo not given)	inactive: 3.39%	–
CCCN(CCC)CC(O)Cn1cc(/C=C/C(=O)c2cccs2)c2ccccc21 (stereo not given)	–	inconclusive [activator, partial curve, poor fit]
Cc1[nH][nH]c(=O)c1C(c1ccc(-c2ccc(Cl)cc2)o1)c1c(C)[nH][nH]c1=O	–	active: 20.6 µM
CNC(=O)/C=C1\NC(C)(C)Cc2c1ccc1ccccc21	–	inconclusive [activator, single point]
COc1cc(/C=C2/NC(=O)N(Cc3ccccc3F)C2=O)cc(OC)c1OC	inactive: 4.23%	–
COc1ccc2c(c1)OC[C@H]1[C@H]2N2C(=O)c3cc(F)ccc3NC(=O)[C@@]2(C)[C@H]1c1ccccc1	–	inconclusive [activator, single point]
COC(=O)/C=C1\S/C(=N/N=C/c2ccccc2)NC1=O	–	inconclusive [activator, partial curve, poor fit]
Cc1c(Cl)ccc(S(=O)(=O)NCCCn2ccnc2)c1Cl	–	inconclusive [activator, partial curve]
Fc1ccc2c(c1)Sc1ccc(Cl)cc1CC2N1CCN(CCC2OCCO2)CC1 (stereo not given)	–	inconclusive [activator, single point]
CCc1nc(NCCc2ccccn2)c2nnn(Cc3ccccc3F)c2n1	–	inconclusive [activator, single point]
COC(=O)c1ccccc1NCc1cc(=O)oc2cc(O)c(O)cc12	–	inconclusive [activator, single point]

SMILES	activity, positive = re-replication	Potency
Cc1[nH]c2ccccc2c1C(=O)C(=O)N1CCN(C(=O)c2ccco2)CC1	inactive: -1.83%	–
C/C(=N\N1CCN(C)CC1)c1ccc(OC(F)F)cc1	–	inconclusive [activator, single point]
O=C(N/N=C/c1cccc2ccccc12)c1n[nH]c2c1CCCC2	–	inconclusive [activator, full curve, poor fit]
Cc1cc2ccccn2c1C(=O)c1ccc(NN)c([N+](=O)[O-])c1	–	inconclusive [activator, single point]
COc1cc2c(cc1NC(=O)c1cccc(F)c1)CCCC2	inactive: 21.5%	–
N#CC(C#N)=c1ccc2c(c1)NC1(CCCCC1)N=2	–	inconclusive [activator, partial curve, poor fit]
Nc1nnc(SCC(=O)Nc2cccc3ccccc23)s1	–	inconclusive [activator, single point]
Cc1c(C(N)=O)sc2nc(-c3ccccc3)cn12	inactive: -6.65%	–
O=C(c1ccc(S(=O)(=O)N2CCCCCC2)cc1)N(c1ccccn1)C1CCCCC1	–	inconclusive [activator, single point]
Cc1cc(-c2ccccc2)n2ncc(-c3ccccc3)c2n1	–	inconclusive [activator, partial curve, poor fit]
CCCCNC(=S)N1CCN(Cc2ccc3c(c2)OCO3)CC1	–	inconclusive [activator, partial curve, poor fit]
Cc1nn(-c2ccccc2)c(C)c1C(=O)OCc1ccc(C#N)cc1	inactive: 27.9%	–
O=C(COc1ccc(Cl)cc1)NCCNC(=O)c1ccccn1	inactive: -7.41%	–
O=C(CCl)N1c2ccccc2Sc2c1ccc1ccccc21	–	active: 18.4 µM
COc1ccc(OC)c(/C=C/C(=O)c2ccc3c(c2)OCCO3)c1	–	active: 20.6 µM
O=C(Nc1cc(Cl)cc(Cl)c1)C1CCC(=O)N1Cc1ccccc1Cl (stereo not given)	–	inconclusive [activator, single point]
CCOc1ccc(C2/C(=C(\O)c3ccc4c(c3)OCCO4)C(=O)C(=O)N2CCN2CCOCC2)cc1OC (stereo not given)	inactive: -3.86%	–
O=C1/C(=C/Nc2ccc3c(c2)OCO3)CCc2ccccc21	–	inconclusive [activator, single point]
COc1ccc(CN(C)C(=O)c2cccc(Oc3ccccc3)c2)c(OC)c1OC	–	inconclusive [activator, partial curve]
O=C(Nc1ccc2oc(-c3ccc(Cl)c(Cl)c3)nc2c1)c1ncn[nH]1	–	inconclusive [activator, partial curve]
O=C(CSc1ccc2ccccc2c1)Nc1ccncc1	–	inconclusive [activator, partial curve, poor fit]
O=C(CSc1ccc(Cl)cc1)Nc1cccc(-c2nc3ccccc3[nH]2)c1	–	active: 18.4 µM
N#Cc1ccccc1NC(=O)CSc1nnc(-c2ccccc2)n1-c1ccccc1	–	inconclusive [activator, partial curve, poor fit]
CCN(CC)S(=O)(=O)c1ccc(S(=O)(=O)Nc2ccc3c(c2)oc2ccccc23)cc1	–	inconclusive [activator, single point]

SMILES	activity, positive = re-replication	Potency
Cc1cc(F)ccc1S(=O)(=O)N1CCCOC1CNC(=O)C(=O)NCc1ccncc1 (stereo not given)	inactive: -8.88%	–
O=C(CNC(=O)c1ccc(N2CCCC2=O)cc1)Nc1ccc(F)c(F)c1F	–	inconclusive [activator, partial curve, poor fit]
COc1ccc(-c2cc(C(=O)N3CC4(C)CC3CC(C)(C)C4)no2)cc1OC (stereo not given)	–	inconclusive [activator, partial curve, poor fit]
O=C(CCNc1ccc(Cl)c(C(F)(F)F)c1)c1ccco1	–	inconclusive [activator, partial curve, poor fit]
C=CCNc1cnn(-c2ccc(C)cc2)c(=O)c1Sc1ccc(C)cc1	–	inconclusive [activator, single point]
Cc1ccc(NC(=S)N(CCN2CCOCC2)Cc2ccccc2F)cc1Cl	–	inconclusive [activator, partial curve, poor fit]
CC1=NNC(=O)C1CC(=O)N/N=C/c1cccs1 (stereo not given)	inactive: -0.607%	–
Cc1sc(NC(=O)c2ccco2)c(C(c2ccc(F)cc2)N2CCN(C)CC2)c1C (stereo not given)	–	inconclusive [activator, partial curve, poor fit]
CCCC(c1nnnn1CCOC)N1CCN(C(=O)c2ccco2)CC1 (stereo not given)	inactive: 1.32%	–
CN1C(=O)/C(=C/c2cccc(Cl)c2)Sc2ccc(C(=O)NCc3cccnc3)cc21	–	inconclusive [activator, full curve, poor fit]
O=C(NCc1ccccc1)N1CCNCC1	–	inconclusive [activator, single point]
O=S(=O)(c1ccc(F)cc1)N1CCN(CC2CC3C=CC2C3)CC1 (stereo not given)	–	inconclusive [activator, partial curve, poor fit]
O=C(N/N=C/c1sc(=O)[nH]c1-[n+]1ccc2ccccc2c1)c1ccccc1[O-]	inactive: 5.33%	–
O=C(/C=C/c1ccc2c(c1)OCO2)Nc1cccnc1	–	inconclusive [activator, single point]
COc1ccccc1NC(=O)N1CCN(c2ncccn2)CC1	inactive: -4.47%	–
Cc1ccccc1OCC(=O)NNC(=O)Cn1[nH]c(=O)c2ccccc2c1=O	inactive: -2.76%	–
Cc1ccc(-c2noc(C3CCN(S(=O)(=O)c4ccc5c(c4)OCCO5)CC3)n2)o1	–	inconclusive [activator, single point]
NC(N)=NCC(O)CN(c1ccccc1)c1ccccc1 (stereo not given)	inactive: 1.25%	–
Cc1ccc(CS(=O)Cc2ccc(C(=O)N3CCN(c4ccccn4)CC3)o2)cc1 (stereo not given)	inactive: 0.153%	–
O=C(O)Cc1ccc(NC(=S)NCc2ccco2)cc1	inactive: 7.81%	–
COc1ccc(/C=C2/C(=O)N=C3SCCN32)cc1	–	inconclusive [activator, single point]
Cc1cc(C2(c3ccc(O)c(C)c3)C(=O)N(C)c3ccc(Br)cc32)ccc1O	–	inconclusive [activator, single point]
